Values joined by “and” are separate entries in the source; they are usually repeats but may differ in a detail not shown here. Equal entries are not always repeated.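 A five-concentration, 48-hour dose response in 96-well plates underlies each endpoint, interpolated linearly between surrounding concentrations. Abbreviation: GI50, concentration required for 50% inhibition of growth. TGI is the concentration that stops growth completely.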
These molecules were tested on NCI-H322M lung (assay: NCI tumour cell line growth inhibition, 48 h).

SMILES | TGI | GI50
Nc1nc(Cl)cc(OCC2(CO)CCCCC2)n1 | > 100 µM | 
Fc1ccc(Nc2ccnc(N3CCN(c4ccnc5cc(Cl)ccc45)CC3)n2)cc1 | 52.5 µM | 3.21 µM
Nc1ccc(Oc2ccc(C34CC5CC(C3)CC(c3ccc(Oc6ccc(N)c(O)c6)cc3)(C5)C4)cc2)cc1O | 2.04 µM | 
COc1ccc(N2CCN(c3nc(-c4ccccn4)nc4sc5c(c34)CCCCCC5)CC2)cc1 | > 100 µM | 5.55 µM
O=C(COc1ccc(Cl)cc1Cl)NNc1ccc([N+](=O)[O-])cc1 | > 100 µM | 52.6 µM
Cc1cccc(Nc2ncc(-c3ccccc3)o2)c1 | > 25 µM | > 25 µM
Cc1ccc(O)c(C(=O)/C=C/c2ccccc2)c1 | > 100 µM | 
CC(=O)OCc1cc[c]([Hg][Cl])o1 | 46.8 µM | 19.5 µM
C#Cc1cccc(NC(=O)C2CCCCN2C(=O)CCl)c1 (centres undefined) | > 82.5 µM | > 82.5 µM
COc1ccc(CNCCN2C(=O)c3ccc4c5c(ccc(c35)C2=O)C(=O)N(CCNCc2ccc(OC)c(OC)c2OC)C4=O)c(OC)c1OC | 1.38 µM | 0.182 µM
CC(C)Cc1cc(-c2cccn2C)c(C#N)c(=O)[nH]1 | > 100 µM | > 100 µM
CC(=O)[C@H]1CC[C@@H]2[C@]1(C)CC=C1[C@]23C=C[C@]2(C[C@@H](O)CC[C@]12C)C(C(=O)O)C3C(=O)O (some centres undefined) | > 100 µM | 
Cn1cc(-c2nc(-c3c[nH]c4ccccc34)cs2)c2cccnc21 | > 100 µM | 23.4 µM
O=C1C2Cc3ccccc3CN2C(=O)N1CN1CCCCC1 (centres undefined) | > 100 µM | 
COC(=O)C1(N2CCOCC2)CCC([C@@H](c2ccccc2)C(C)[N+](=O)[O-])C1 (some centres undefined) | > 100 µM | 
O=C(Nc1ccc(-c2cn3ccccc3n2)cc1)c1cc(Br)ccc1O | > 100 µM | 
CCN(CC)CCNC(=O)C1COc2ccc(-c3cc(=O)c4ccccc4o3)cc2O1 (centres undefined) | 38.1 µM | 
CCn1c(C)nc([N+](=O)[O-])c1Sc1ncc[nH]1 | > 100 µM | 
O=C(Nc1ccc([N+](=O)[O-])cc1Cl)c1cc(Cl)ccc1O | 0.444 µM | 0.135 µM and 0.279 µM
CCOC1=C2N=C(C(CC)c3ccc(F)cc3)N=C2C(=O)c2ccccc21 (centres undefined) | > 100 µM | 
CNC(=O)c1cc(Oc2ccc(NC(=O)Nc3ccc(Cl)c(C(F)(F)F)c3)cc2)ccn1 | > 10 µM and 11.1 µM and 9.22 µM | 3.99 µM and 3.71 µM and 2.96 µM
c1ccc(OCC[P+](c2ccccc2)(c2ccccc2)c2ccccc2)cc1 | 24.5 µM | 3.95 µM
Cn1c(SCc2ccc([N+](=O)[O-])cc2)nnc1C12CC3CC(CC(C3)C1)C2 | > 10 µM | 
Nc1cc2c3ccccc3ccc2c2ccccc12 | > 100 µM | > 100 µM
C=C1C(=O)OC2C=C(C)CC3C=C(CCC=C(C)CCC12)C(=O)O3 (centres undefined) | 115 µM | 

SMILES | TGI | GI50
CCC(/C(=N/NC(=O)C[N+](C)(C)C)c1ccccc1)C1OC(=O)c2ccccc21 (centres undefined) | > 100 µM | 
O=C(NNC(=O)c1ccccc1O)c1cccs1 | > 100 µM | 
O=c1[nH]c(C2CCCCC2)nc2ccc(Cl)cc12 | > 100 µM | 
N#Cc1cc([N+](=O)[O-])ccc1NC(=O)C(=O)Nn1c(=S)[nH]c2ccccc2c1=O | > 100 µM | 
Cc1nc(-n2nc(-c3ccccc3)cc2-c2ccccc2)sc1C(/C=C\c1ccc([N+](=O)[O-])cc1)=N/NC(=S)NN | > 89 µM | 
CC#CC#C/C=C1/C=CC2(CCCCO2)O1 (centres undefined) | > 100 µM | 
O=S1(=O)CC#CC[C@@H](CO)[C@@H](CO)CC#CC1 | > 100 µM | 
C=C1[C@H](O)C[C@@H](C(C)C(O)CC=C(C)C)[C@@H](O)[C@@H]2C(C)=CC[C@@H]12 (some centres undefined) | > 100 µM | > 100 µM
CC1=NN(c2ccccc2)C(=O)C1N=Nc1ccc(Br)cc1C (centres undefined) | > 100 µM | 
C#CCn1c(=O)c2cc(OC)c(OC)cc2n(CC#C)c1=O | > 10 µM | 
O=C(O)[C@@H](Cc1ccccc1)NS(=O)(=O)c1ccc(-c2ccccc2)cc1 | > 100 µM | > 100 µM
Cc1c2cc[n+](C)cc2c(C)c2c1[nH]c1ccc(OC(C)(C)C)cc12 | > 100 µM | 
CCOP(=O)(OCC)C(Cc1cn(S(=O)(=O)c2ccc(C)cc2)cn1)C(=O)O (centres undefined) | > 100 µM | 
COc1ccc(/C=C2\CCC(C)(CN(C)C)C2=O)cc1Br (centres undefined) | 97.6 µM | 
COc1c(C(=O)CC2c3c(cc4oc(C)cc(=O)c4c3OC)OC(=N)C2c2nc3ccccc3[nH]2)c(O)c(OC)c2occc12 (centres undefined) | > 100 µM | 
Nc1ncnc2c1ncn2Cc1ccc(CCl)cc1 | 38.6 µM | 17.8 µM
COC(=O)C1=C(C(=O)OC)SC2(S1)C(C(=O)OC)=C(C(=O)OC)Sc1c2ssc1=O | 24.9 µM | 
C#CCN1C(=O)CN2C(Cl)(Cl)C2(c2ccccc2)c2cc(Cl)ccc21 (centres undefined) | > 100 µM | 
O=C(Cn1cc(I)c(C(=O)NCC(O)CO)n1)NCC(O)CO (centres undefined) | > 100 µM | 
Oc1ccc(Cl)cc1N=Nc1c(O)ccc2ccccc12 | > 100 µM | 
COC(=O)C12CCC(CC1=O)C2(C)C (centres undefined) | > 100 µM | 
COc1ccc(C2CC(=O)Nc3c2c(C)nn3-c2nc3ccccc3[nH]2)cc1OC (centres undefined) | 57.7 µM | 7.81 µM
Cc1cc2nc3c(C)c4ccccc4c(C)n3c2cc1C | > 10 µM | 
CC1(/C=C/c2ccc(-c3ccccc3)cc2)CCn2cnc3ncnc(c32)N1O (centres undefined) | 23.8 µM | 0.231 µM
O=C(C#Cc1ccccc1)Nc1ccccc1CC(c1c[nH]c2ccccc12)c1c[nH]c2ccccc12 | > 100 µM | 

SMILES | TGI | GI50
COC1C[C@H](O[C@@H]2C[C@H](O[C@@H]3C[C@H](O[C@@H]4C(=O)c5c(cc6cc(O[C@H]7C[C@@H](O[C@H]8C[C@@H](O)[C@H](O)C(C)O8)[C@H](O)C(C)O7)c(C)c(O)c6c5O)C[C@H]4C(OC)C(=O)[C@@H](O)[C@@H](C)O)OC(C)[C@H]3O)OC(C)[C@@H]2O)OC(C)[C@@H]1O (some centres undefined) | 15.8 µM | 0.0889 µM
Nc1nc(N)c2c(n1)NC(c1ccc(Cl)cc1)C1CCc3ccccc3C1=N2 (centres undefined) | 26.3 µM | 12.8 µM
COC(=O)/C(=C1\OC(=O)C(c2ccc(Cl)cc2)=C1O)c1ccc(Cl)cc1 | > 100 µM | 
Nc1ccc2ncc(NCc3ccc(F)cc3)nc2c1 | > 100 µM | 
O=C(NC12CC3CC(CC(C3)C1)C2)n1cnc2c(Cl)ncnc21 | > 100 µM | 
Cc1ccccc1N=C(c1ccccc1)C1C(=O)c2ccccc2C1=O | 22.7 µM | 2.08 µM
O=C(C#Cc1ccccc1)N1CCCCC1 | > 100 µM | 
Cc1ccccc1C1SCc2nc3ccccc3n21 (centres undefined) | > 100 µM | 
CN1C(=O)c2c(c3c4ccccc4n(C)c3c3c2c2ccccc2n3C)C1=O | > 100 µM | 
Nc1nc(Cl)cc(Oc2ccc(Cl)cc2)n1 | > 100 µM | 
COc1ccc(COc2ccc(Cc3cnc(N)nc3N)cc2OC)cc1 | > 25 µM | > 25 µM
CN(CCCNC(=O)c1[nH]nc2c1ccc1ccccc12)CCCNC(=O)c1[nH]nc2c1ccc1ccccc12 | 35.5 µM | 
COc1cc(-c2cc(-c3ccc(Nc4nc(Nc5ccc(Cl)cc5)nc(Nc5ccc(Cl)cc5)n4)cc3)no2)cc(OC)c1OC | > 100 µM | 10.8 µM
CN(N=O)N1C(=O)SCC(c2ccccc2)(c2ccccc2)C1=O | > 100 µM | 
CN1CCN(CCCn2c3c(sc4ncccc43)c(=O)n3nnc(-c4ccccc4)c23)CC1 | 3.48 µM | 1.74 µM
CCCCCCCCC/C=C1/CC(CO)(COC(=O)C2CCCCC2)OC1=O (centres undefined) | > 100 µM | 
COc1ccc(-c2oc(C=Nc3ccccc3)c([N+](=O)[O-])c2-c2ccc(OC)c(OC)c2)cc1OC | > 100 µM | 
C=C1C(O)C2OC(=O)C(=C)C2C(OC(=O)/C(C)=C/C)CC2(C)OC2C2OC12 (centres undefined) | 40.5 µM | 
CC(=O)Nc1ccc(S(=O)(=O)Nc2cnc3ccccc3n2)cc1 | > 100 µM | 
COc1cc([C@@H]2c3cc4c(cc3[C@H](OC3OC5COC(C(C)C)OC5C(O)C3O)C3COC(=O)[C@@H]32)OCO4)cc(OC)c1OC (some centres undefined) | 21 µM | 
OC[C@@H](O)[C@H](O)[C@H](O)[C@@H](O)C1SCCCS1 | > 100 µM | 
NC1=NN(c2ccccc2)C(=O)C1/C(=N\NC(=O)c1cc2ccccc2cc1O)C(=O)Nc1ccc(Cl)c(Cl)c1 (centres undefined) | > 100 µM | 
Cc1cc(C(=O)NOCCO)c(Nc2ccc(I)cc2F)n(C)c1=O | > 100 µM | 0.0408 µM and 0.0214 µM
COc1cc(/C=[N+](\[O-])c2ccccc2Cl)ccc1OC(=S)S | > 100 µM | 
CC1O[C@@H]2CCCCC(=O)[C@]2(C)[C@H]1C (some centres undefined) | > 100 µM | 

SMILES | TGI | GI50
CC(NC(=O)C(NC(=O)C(NC(=O)C(F)(F)F)C(C)C)C(C)C)C(=O)Oc1c(Cl)c(Cl)c(Cl)c(Cl)c1Cl (centres undefined) | > 100 µM | 
c1ccc2c(c1)CCCc1nnc3nc4ccccc4n3c1-2 | > 100 µM | 5.92 µM
CCN(CC(O)COc1ccc2c(c1)[n+]([O-])nc(N)[n+]2[O-])C(C)=O (centres undefined) | > 100 µM | 
c1ccc(C2SCc3nc4ccccc4n32)cc1 (centres undefined) | > 100 µM | 
O=C(NC1CCCCC1)N1CCNC1=S | > 100 µM | 
CCCCCCCN(CCCCCCC)C(=N)c1ccc(OC)c2ccccc12 | 2.89 µM | 1.36 µM
Cc1ccc(S(=O)(=O)N(CC(O)COc2ccccc2)c2ccccc2Cl)cc1 (centres undefined) | 41.7 µM | 
O=C1NC(=O)/C(=C/c2ccc3nccc(-c4ccncc4)c3c2)S1 | 1.34 µM | 0.227 µM
CN1C(=O)CC(CC(=O)C2CCCCC2=O)CC1=O (centres undefined) | > 100 µM | 
CCOC(=O)C1=C(C)NC(c2ccccc2)=C(C(=O)OCc2ccccc2)C1C#Cc1ccccc1 (centres undefined) | > 100 µM | 
c1ccc2cc(Cn3c(-c4cccc5ccccc45)[n+](Cc4ccc5ccccc5c4)c4c5ccccc5c5ccccc5c43)ccc2c1 | 1.62 µM | 0.416 µM
COc1cc(/C=C/[N+](=O)[O-])cc(OC)c1 | 24.4 µM | 11 µM
O=Cc1cc2sc(C=O)cc2s1 | > 100 µM | 
O=c1oc2c(Cl)cc(Cl)cc2cc1-c1cn2c(n1)sc1ccccc12 | > 100 µM | 
O=C1C(Nc2ccc(S(=O)(=O)Nc3cnc4ccccc4n3)cc2)=CC(=Nc2ccc(S(=O)(=O)Nc3cnc4ccccc4n3)cc2)c2ccccc21 | 31.7 µM | 
Cn1cc(-c2[nH]c3cc(NC(=O)[C@H](N)C4CCCCC4)cc4c3c2C=NNC4=O)cn1 | 13.1 µM and > 10 µM | 0.229 µM and 0.251 µM
COc1ccc2nc3c(nc2c1)C(C)(C)C=C3c1ccc(Br)cc1 | > 100 µM | 
Cc1c(-c2c(F)cc(C(N)=O)c3[nH]c4c(c23)CC[C@H](C(C)(C)O)C4)cccc1-n1c(=O)c2cccc(F)c2n(C)c1=O | > 100 µM | 4.82 µM
COc1cc2ccnc3c2c(c1OC)N(C)C=C3 | 48.6 µM | 
O=C(NNC(=O)/C(=C/c1cccc([N+](=O)[O-])c1)NC(=O)c1ccccc1)Nc1ccc(Cl)cc1 | 30.4 µM | 
CC1NCCC(CC(=O)O)C1CC(=O)O (centres undefined) | > 100 µM | 
Cn1c(=Nc2ccccc2[N+](=O)[O-])sc2ccccc21 | > 100 µM | 
